The supplement of paper PMC4604168 (melanoma cell lines)
This is one part of the list. Most values come without repeats; read them as rough.

System: SkMel28
Assay: cell count relative to DMSO control; melanoma cells; higher = more viable cells
Details: library dose: low library concentration; 72 h; first compound 0.4 µM
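Note: cell number obtained by counting DAPI-stained nuclei in high-throughput microscope images with image analysis software, screen run in 1,536-well plates.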

SMILES	cell count [%]
Cn1sc(=O)n(Cc2ccccc2)c1=O + c1cc(-c2cnn3cc(-c4ccc(OCCN5CCCCC5)cc4)cnc23)ccn1 [Dorsomorphin] (partner dose 0.4 µM)	89.1
C[C@@H](N)c1ccc(C(=O)Nc2ccnc3[nH]ccc23)cc1 + Oc1nc(-c2ccc(C(F)(F)F)cc2)nc2c1CSCC2 [XAV939] (partner dose 2 µM)	77.2
CCCCCCCCCCCCCCCCCCOP(=O)([O-])OC1CC[N+](C)(C)CC1 [Perifosine] + Cn1cc(/C=C2\C(=O)Nc3cccnc32)c2ccccc21 [GW441756] (partner dose 0.4 µM)	87.4
C[C@@H](N)c1ccc(C(=O)Nc2ccnc3[nH]ccc23)cc1 + CN(NC(=O)CC(=O)NN(C)C(=S)c1ccccc1)C(=S)c1ccccc1 [STA4783] (partner dose 0.006 µM)	53.6
C[C@@H](N)c1ccc(C(=O)Nc2ccnc3[nH]ccc23)cc1 + COc1cc2ncnc(Nc3ccc(Oc4ccccc4)cc3)c2cc1OC [SrcI1] (partner dose 2 µM)	71.7
Cn1sc(=O)n(Cc2ccccc2)c1=O + N#Cc1c(O)c2c(-c3ccc(-c4ccccc4O)cc3)csc2[nH]c1=O [A769662] (partner dose 2 µM)	101
CCCCCCCCCCCCCCCCCCOP(=O)([O-])OC1CC[N+](C)(C)CC1 [Perifosine] + c1cc(-c2cnn3cc(-c4ccc(OCCN5CCCCC5)cc4)cnc23)ccn1 [Dorsomorphin] (partner dose 0.4 µM)	107
Cn1sc(=O)n(Cc2ccccc2)c1=O + O=c1cc(-c2cccc3c2Sc2ccccc2S3)oc(N2CCOCC2)c1 [KU55933] (partner dose 1 µM)	98
C[C@@H](N)c1ccc(C(=O)Nc2ccnc3[nH]ccc23)cc1 + COc1cc2c(Oc3ccc4[nH]c(C)cc4c3F)ncnc2cc1OCCCN1CCCC1 [cediranib] (partner dose 0.4 µM)	64
C[C@@H](N)c1ccc(C(=O)Nc2ccnc3[nH]ccc23)cc1 + COc1ccc(-c2ccc3c(N4CCOCC4)nc(N4C[C@@H](C)O[C@@H](C)C4)nc3n2)cc1CO [KU0063794] (partner dose 0.02 µM)	87.3
C[C@@H](N)c1ccc(C(=O)Nc2ccnc3[nH]ccc23)cc1 + COC(=O)c1sccc1S(=O)(=O)Nc1ccc(Nc2ccccc2)cc1OC [GSK0660] (partner dose 1 µM)	82.3
C[C@@H](N)c1ccc(C(=O)Nc2ccnc3[nH]ccc23)cc1 + COc1cc(Nc2ncc(F)c(Nc3ccc4c(n3)NC(=O)C(C)(C)O4)n2)cc(OC)c1OC [Tamatinib] (partner dose 0.4 µM)	70.9
Cn1sc(=O)n(Cc2ccccc2)c1=O + CCc1ccc(CCOc2ccc(CC3SC(=O)NC3=O)cc2)nc1 [pioglitazone] (partner dose 2 µM)	86.2
Cn1sc(=O)n(Cc2ccccc2)c1=O + O=C(O)C(=O)Nc1sc2c(c1C(=O)O)CCNC2 [TCS401] (partner dose 1.66667 µM)	101
CCCCCCCCCCCCCCCCCCOP(=O)([O-])OC1CC[N+](C)(C)CC1 [Perifosine] + O=S(=O)(c1ccccc1)N(CC(F)(F)F)c1ccc(C(O)(C(F)(F)F)C(F)(F)F)cc1 [T0901317] (partner dose 1.4 µM)	89.1
CCCCCCCCCCCCCCCCCCOP(=O)([O-])OC1CC[N+](C)(C)CC1 [Perifosine] + N#Cc1c(O)c2c(-c3ccc(-c4ccccc4O)cc3)csc2[nH]c1=O [A769662] (partner dose 2 µM)	97
C[C@@H](N)c1ccc(C(=O)Nc2ccnc3[nH]ccc23)cc1 + C[C@@H]1CCN(C(=O)CC#N)C[C@@H]1N(C)c1ncnc2[nH]ccc12 [CP690550] (partner dose 1 µM)	83.2
Cn1sc(=O)n(Cc2ccccc2)c1=O + Oc1nc(-c2ccc(C(F)(F)F)cc2)nc2c1CSCC2 [XAV939] (partner dose 2 µM)	87.1
CCCCCCCCCCCCCCCCCCOP(=O)([O-])OC1CC[N+](C)(C)CC1 [Perifosine] + CC(C)CCN1c2nc(Nc3cc(F)c(O)c(F)c3)ncc2N(C)C(=O)C1C [BID1870] (partner dose 0.2 µM)	95.2
Cn1sc(=O)n(Cc2ccccc2)c1=O + COc1cc2ncnc(Nc3ccc(Oc4ccccc4)cc3)c2cc1OC [SrcI1] (partner dose 2 µM)	90.1

SMILES	cell count [%]
Cn1sc(=O)n(Cc2ccccc2)c1=O + COC(=O)c1sccc1S(=O)(=O)Nc1ccc(Nc2ccccc2)cc1OC [GSK0660] (partner dose 1 µM)	97.9
Cn1sc(=O)n(Cc2ccccc2)c1=O + CC1(C)NC(=O)N(c2ccc([N+](=O)[O-])c(C(F)(F)F)c2)C1=O [nilutamide] (partner dose 1 µM)	81.4
Cn1sc(=O)n(Cc2ccccc2)c1=O + COc1ccc(COc2ccc(Cc3cnc(N)nc3N)cc2OC)cc1 [GW2580] (partner dose 1 µM)	91.5
C[C@@H](N)c1ccc(C(=O)Nc2ccnc3[nH]ccc23)cc1 + CCCCCCCCCCCC1=C(O)C(=O)C=C(O)C1=O [Embelin] (partner dose 1.2 µM)	74.1
CCCCCCCCCCCCCCCCCCOP(=O)([O-])OC1CC[N+](C)(C)CC1 [Perifosine] + O=C(O)c1ccc(-c2c[nH]c3ncc(-c4ccccc4)cc23)cc1C1CCCC1 [GSK650394] (partner dose 0.16 µM)	83.5
C[C@@H](N)c1ccc(C(=O)Nc2ccnc3[nH]ccc23)cc1 + CO[C@@H]1[C@H](N(C)C(=O)c2ccccc2)C[C@H]2O[C@]1(C)n1c3ccccc3c3c4c(c5c6ccccc6n2c5c31)C(=O)NC4 [Midostaurin] (partner dose 0.08 µM)	71.9
Cn1sc(=O)n(Cc2ccccc2)c1=O + CN(NC(=O)CC(=O)NN(C)C(=S)c1ccccc1)C(=S)c1ccccc1 [STA4783] (partner dose 0.006 µM)	92.6
Cn1sc(=O)n(Cc2ccccc2)c1=O + Oc1cc(-c2nc(-c3ccccc3)[nH]c2-c2ccncc2)ccc1Cl [L779450] (partner dose 0.2 µM)	83.1
CCCCCCCCCCCCCCCCCCOP(=O)([O-])OC1CC[N+](C)(C)CC1 [Perifosine] + Cc1cc([N+](=O)[O-])ccc1NS(=O)(=O)c1cc(Cl)ccc1Cl [FH535] (partner dose 1 µM)	85
C[C@@H](N)c1ccc(C(=O)Nc2ccnc3[nH]ccc23)cc1 + O=C(O)C(=O)Nc1sc2c(c1C(=O)O)CCNC2 [TCS401] (partner dose 1.66667 µM)	61.4
C[C@@H](N)c1ccc(C(=O)Nc2ccnc3[nH]ccc23)cc1 + COc1ccc(COc2ccc(Cc3cnc(N)nc3N)cc2OC)cc1 [GW2580] (partner dose 1 µM)	86.8
CCCCCCCCCCCCCCCCCCOP(=O)([O-])OC1CC[N+](C)(C)CC1 [Perifosine] + OCCn1cc(-c2cnc3nnn(Cc4ccc5ncccc5c4)c3n2)cn1 [PF04217903] (partner dose 1 µM)	76.9
C[C@@H](N)c1ccc(C(=O)Nc2ccnc3[nH]ccc23)cc1 + CN(C)S(=O)(=O)c1ccc2c(c1)/C(=C/c1cc3c([nH]1)CCCC3)C(=O)N2 [SU6656] (partner dose 0.4 µM)	90.1
Cn1sc(=O)n(Cc2ccccc2)c1=O + Cc1cc([N+](=O)[O-])ccc1NS(=O)(=O)c1cc(Cl)ccc1Cl [FH535] (partner dose 1 µM)	90.5
Cn1sc(=O)n(Cc2ccccc2)c1=O + CC(C)CCN1c2nc(Nc3cc(F)c(O)c(F)c3)ncc2N(C)C(=O)C1C [BID1870] (partner dose 0.2 µM)	91.2
C[C@@H](N)c1ccc(C(=O)Nc2ccnc3[nH]ccc23)cc1 + c1cc(-c2cnn3cc(-c4ccc(OCCN5CCCCC5)cc4)cnc23)ccn1 [Dorsomorphin] (partner dose 0.4 µM)	70.8
CCCCCCCCCCCCCCCCCCOP(=O)([O-])OC1CC[N+](C)(C)CC1 [Perifosine] + CC(C)(C)c1cnc(CSc2cnc(NC(=O)C3CCNCC3)s2)o1 [SNS-032] (partner dose 0.01 µM)	76.5
C[C@@H](N)c1ccc(C(=O)Nc2ccnc3[nH]ccc23)cc1 + O=c1cc(-c2cccc3c2Sc2ccccc2S3)oc(N2CCOCC2)c1 [KU55933] (partner dose 1 µM)	96.7
CCCCCCCCCCCCCCCCCCOP(=O)([O-])OC1CC[N+](C)(C)CC1 [Perifosine] + C[C@@H]1CCN(C(=O)CC#N)C[C@@H]1N(C)c1ncnc2[nH]ccc12 [CP690550] (partner dose 1 µM)	98.8
